# Measurements reported in the supplement of paper PMC8728848.
# Some of the results follow.
# B1: Clone730PsrP (Streptococcus pneumoniae) (protein)
# chain: MDHHHHHHHHHHASENLYFQGAMVVGSQTAAATEATAKKVEEDRKKPASDYVASVTNVNLQSYAKRRKRSVDSIEQLLASIKNAAVFSGNTIVNGAPAINASLNIAKSETKVYTGEGVDSVYRVPIYYKLKVTNDGSKLTFTYTVTYVNPKTNDLGNISSMRPGYSIYNSGTSTQTMLTLGSDLGKPSGVKNYITDKNGRQVLSYNTSTMTTQGSGYTWGNGAQMNGFFAKKGYGLTSSWTVPITGTDTSFTFTPYAARTDRIGINYFNGGGKVVESSTT
# Assays:
# Assay in all cases: glycan array binding signal (z-score within array); higher = stronger binding
# Details in all cases: glycan notation: IUPAC condensed, linker removed
# [1] = biological target: Fuc(a1-3)GlcNAc
# How it was run: (§1)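 Glycan array data were curated from 3228 arrays in the Consortium for Functional Glycomics database and kept only where the protein sequence was available. Glycan names were converted to IUPAC-condensed notation, and columns mapping to the same glycan were averaged. The binding signal is a within-array Z-score, averaged across arrays of the same protein sequence at different concentrations or buffers and across linkers. Negative Z-scores can be read as non-binding.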
# [2] = biological target: Fuc(a1-3)[Gal(b1-4)]Glc6S
# How it was run: as §1
# [3] = biological target: Fuc(a1-3)[Gal(b1-4)]GlcNAc
# How it was run: as §1
# [4] = biological target: Fuc(a1-3)[Gal(b1-4)]GlcNAc(b1-2)Man
# How it was run: as §1
# [5] = biological target: Fuc(a1-3)[Gal(b1-4)]GlcNAc(b1-2)Man(a1-3)[Fuc(a1-3)[Gal(b1-4)]GlcNAc(b1-2)Man(a1-6)]Man(b1-4)GlcNAc(b1-4)GlcNAc
# How it was run: as §1
# [6] = biological target: Fuc(a1-3)[Gal(b1-4)]GlcNAc(b1-2)Man(a1-3)[Fuc(a1-3)[Gal(b1-4)]GlcNAc(b1-2)Man(a1-6)]Man(b1-4)GlcNAc(b1-4)[Fuc(a1-6)]GlcNAc
# How it was run: as §1
# [7] = biological target: Fuc(a1-3)[Gal(b1-4)]GlcNAc(b1-3)Gal(b1-3)[Fuc(a1-4)]GlcNAc
# How it was run: as §1
# [8] = biological target: Fuc(a1-3)[Gal(b1-4)]GlcNAc(b1-3)Gal(b1-4)[Fuc(a1-3)]GlcNAc
# How it was run: as §1
# [9] = biological target: Fuc(a1-3)[Gal(b1-4)]GlcNAc(b1-3)Gal(b1-4)[Fuc(a1-3)]GlcNAc(b1-3)Gal(b1-4)[Fuc(a1-3)]GlcNAc
# How it was run: as §1
# [10] = biological target: Fuc(a1-3)[Gal(b1-4)]GlcNAc(b1-3)GalNAc
# How it was run: as §1
# [11] = biological target: Fuc(a1-3)[Gal(b1-4)]GlcNAc(b1-6)GalNAc
# How it was run: as §1
# [12] = biological target: Fuc(a1-3)[Gal(b1-4)]GlcNAc(b1-6)[Gal(b1-3)GlcNAc(b1-3)]Gal(b1-4)Glc
# How it was run: as §1
# [13] = biological target: Fuc(a1-3)[Gal(b1-4)]GlcNAc6S
# How it was run: as §1
# [14] = biological target: Fuc(a1-3)[Gal3S(b1-4)]Glc
# How it was run: as §1
# [15] = biological target: Fuc(a1-3)[Gal3S(b1-4)]GlcNAc
# How it was run: as §1
# [16] = biological target: Fuc(a1-3)[Gal3S(b1-4)]GlcNAc6S
# How it was run: as §1
# [17] = biological target: Fuc(a1-3)[GalNAc(b1-4)]GlcNAc
# How it was run: as §1
# [18] = biological target: Fuc(a1-3)[GalNAc(b1-4)]GlcNAc6S
# How it was run: as §1
# [19] = biological target: Fuc(a1-4)GlcNAc
# How it was run: as §1
# [20] = biological target: Fuc(b1-3)GlcNAc
# How it was run: as §1
# [21] = biological target: Gal(a1-2)Gal
# How it was run: as §1
# [22] = biological target: Gal(a1-3)Gal
# How it was run: as §1
# [23] = biological target: Gal(a1-3)Gal(b1-3)GlcNAc
# How it was run: as §1
# [24] = biological target: Gal(a1-3)Gal(b1-3)GlcNAc(b1-2)Man
# How it was run: as §1
# [25] = biological target: Gal(a1-3)Gal(b1-3)GlcNAc(b1-2)Man(a1-3)[Gal(a1-3)Gal(b1-3)GlcNAc(b1-2)Man(a1-6)]Man(b1-4)GlcNAc(b1-4)GlcNAc
# How it was run: as §1
# [26] = biological target: Gal(a1-3)Gal(b1-3)GlcNAc(b1-3)GalNAc
# How it was run: as §1
# [27] = biological target: Gal(a1-3)Gal(b1-3)GlcNAc(b1-6)GalNAc
# How it was run: as §1
# [28] = biological target: Gal(a1-3)Gal(b1-3)[Fuc(a1-4)]GlcNAc(b1-2)Man(a1-3)[Gal(a1-3)Gal(b1-3)[Fuc(a1-4)]GlcNAc(b1-2)Man(a1-6)]Man(b1-4)GlcNAc(b1-4)GlcNAc
# How it was run: as §1
# [29] = biological target: Gal(a1-3)Gal(b1-4)Glc
# How it was run: as §1
# [30] = biological target: Gal(a1-3)Gal(b1-4)GlcNAc
# How it was run: as §1
binder,measurement,setting,value
B1,glycan array binding signal (z-score),[1],-0.124
same,glycan array binding signal (z-score),[2],0.699
same,glycan array binding signal (z-score),[3],0.039
same,glycan array binding signal (z-score),[4],-0.286
same,glycan array binding signal (z-score),[5],-0.095
same,glycan array binding signal (z-score),[6],-0.534
same,glycan array binding signal (z-score),[7],-0.389
same,glycan array binding signal (z-score),[8],0.521
same,glycan array binding signal (z-score),[9],0.45
same,glycan array binding signal (z-score),[10],0.297
same,glycan array binding signal (z-score),[11],-0.191
same,glycan array binding signal (z-score),[12],-0.099
same,glycan array binding signal (z-score),[13],0.668
same,glycan array binding signal (z-score),[14],-0.542
same,glycan array binding signal (z-score),[15],-0.136
same,glycan array binding signal (z-score),[16],-0.414
same,glycan array binding signal (z-score),[17],0.389
same,glycan array binding signal (z-score),[18],0.499
same,glycan array binding signal (z-score),[19],0.463
same,glycan array binding signal (z-score),[20],0.268
same,glycan array binding signal (z-score),[21],-0.461
same,glycan array binding signal (z-score),[22],-0.402
same,glycan array binding signal (z-score),[23],-0.675
same,glycan array binding signal (z-score),[24],-0.457
same,glycan array binding signal (z-score),[25],0.105
same,glycan array binding signal (z-score),[26],-0.088
same,glycan array binding signal (z-score),[27],-0.385
same,glycan array binding signal (z-score),[28],-0.371
same,glycan array binding signal (z-score),[29],-0.471
same,glycan array binding signal (z-score),[30],-0.387
